# Data reported in PubChem BioAssay AID894 (National Center for Advancing Translational Sciences (NCATS), 2007).
# In all, about 150,000 compounds went through this assay and about 6,500 (4.3%) were called active. This list was built around the results that the source calls inconclusive (neither active nor inactive); the mix of calls is not that of the screen. The call rests on the fitted dose curve; in most records, active means well fitted inhibition curve with a large enough effect (not every such curve was filed as active); inconclusive means small, poorly fitted or top-dose-only effect, or another doubt; inactive means no such curve, though single readings can be large or run the other way. No potency is given beside an inconclusive call; the fits are too rough. More than one record can exist for a structure, and the calls need not agree.
# Molecular target: 15-hydroxyprostaglandin dehydrogenase [NAD(+)] (Homo sapiens) (UniProt P15428)
# Assay: qHTS Assay for Inhibitors of HPGD (15-Hydroxyprostaglandin Dehydrogenase)
# Conditions: purified HPGD, NADH fluorescence kinetic, PGE2 substrate; activity change, negative = inhibition: stronger effect = lower value
# Summary of the method: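 NADH formation kinetics: reaction with 30 uM PGE2 and 1 mM NAD+ (final), 20 nM enzyme, Tris-HCl pH 8 with Tween 20, after 15 min compound preincubation at room temperature. Fluorescence change, last versus first of five reads.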
# On the % scale 0 is the no-effect control and ±100 the full control effect; potency means the concentration at half of the fitted maximal effect; tags describe the fitted curve by direction and shape.
# Sequence of UniProt P15428 (P15428 whole entry, looked up): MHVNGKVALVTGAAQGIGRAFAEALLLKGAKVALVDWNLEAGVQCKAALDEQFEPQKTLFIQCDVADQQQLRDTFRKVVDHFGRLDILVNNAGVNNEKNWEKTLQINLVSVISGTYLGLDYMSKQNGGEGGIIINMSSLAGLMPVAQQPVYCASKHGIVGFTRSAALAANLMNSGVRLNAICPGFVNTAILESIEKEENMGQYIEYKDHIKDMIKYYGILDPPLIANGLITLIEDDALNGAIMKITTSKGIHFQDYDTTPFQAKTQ
SMILES,Potency,"activity change, negative = inhibition"
CCOC(=O)c1[nH]c2cc(OC)c(OC)cc2c1N,"inconclusive [inhibitor, partial curve]",–
O=S(=O)(N/N=C1/CC(c2ccccc2)Oc2ccccc21)c1ccc(Br)cc1 (stereo unspecified),–,inactive: -18.3%
CCOC(=O)Cc1nnc(NC(=O)CSc2nnc3c4ccccc4n(C(C)C)c3n2)s1,"inconclusive [inhibitor, partial curve, poor fit]",–
O=C(Nc1nnc(COc2ccc(Cl)cc2)s1)C1CCCO1 (stereo unspecified),active: 17.8 µM,–
CCCC(=O)Nc1ccc(Sc2ccc([N+](=O)[O-])cc2)cc1,active: 17.8 µM,–
O=c1c2ccccc2nnn1Cc1nnc(-c2ccccc2Br)o1,active: 28.2 µM,–
COC(=O)c1cccc(NC(=O)CSc2nc(C)cc(=O)[nH]2)c1,active: 20 µM,–
O=C(CSCc1c(F)cccc1Cl)NCC1CCCO1 (stereo unspecified),active: 14.1 µM,–
COCCNC(=O)c1ccc(-n2c(=O)c(=O)[nH]c3ccccc32)cc1,–,inactive: -21.4%
O=C(O)c1ccc2c(=O)n3c(nc2c1)/C(=C/c1ccccc1C(F)(F)F)CCCC3,active: 15.8 µM,–
Cc1cc2n(n1)C(c1cn(-c3ccccc3)nc1C)Nc1ccccc1-2 (stereo unspecified),"inconclusive [inhibitor, partial curve]",–
Cc1ccccc1NC(=O)COC(=O)/C=C/c1cn(-c2ccccc2)nc1-c1cccnc1,"inconclusive [inhibitor, partial curve]",–
CCCc1cc(-c2[nH]ncc2-c2ccc3c(c2)OCCCO3)c(O)cc1OC,–,inactive: -29.5%
CC1CCc2c(C(=O)Nc3nccs3)csc2C1 (stereo unspecified),active: 7.08 µM,–
CCOC(=O)c1nnn(CC(=O)N2N=C(c3ccccc3)CC2c2ccccc2)c1C(=O)OCC (stereo unspecified),"inconclusive [inhibitor, partial curve]",–
CCCn1c(=NC(C)=O)c(C(=O)OCC)cc2c(=O)n3ccccc3nc21,"inconclusive [inhibitor, partial curve]",–
CCOc1ccc(C(=O)CC(=O)C(=O)NCCc2ccc(OC)c(OC)c2)cc1,"inconclusive [inhibitor, single point]",–
CCc1ccccc1N1CSC2=C(C#N)C(c3ccccc3F)CC(=O)N2C1 (stereo unspecified),active: 5.62 µM,–
CCCCC/C=C\C/C=C\CCCCCCCC(=O)O,active: 8.91 µM,–
Cc1ccc(/C=C/C(=O)Nc2cccc(S(=O)(=O)N3CCOCC3)c2)o1,"inconclusive [inhibitor, partial curve]",–
CCN(CC)S(=O)(=O)c1ccc(N2CCOCC2)c(NC(=O)CCC2CCCCC2)c1,"inconclusive [inhibitor, partial curve]",–
COc1cc(C(=O)Nc2ccc(-c3nnc(-c4ccco4)o3)cc2)cc(OC)c1OC,"inconclusive [inhibitor, single point]",–
COc1ccccc1C(=O)Nc1ccc(S(=O)(=O)Nc2cc(C)on2)cc1,"inconclusive [inhibitor, partial curve]",–
Cc1c(C(=O)NCc2ccc3c(c2)OCO3)oc2ccc(S(=O)(=O)N3CCCC3)cc12,"inconclusive [inhibitor, partial curve]",–

SMILES,Potency,"activity change, negative = inhibition"
CCN(CC)NC(=S)Nc1ccccc1,–,inactive: -2%
Clc1ccc(-c2nn3c(-c4ccccc4)nnc3s2)cc1,"inconclusive [inhibitor, partial curve]",–
Cc1cc(C(=O)N/N=C/C=C/c2ccc3c(c2)OCO3)n[nH]1,"inconclusive [inhibitor, partial curve]",–
Cc1nnc(NC(=O)CCCCCN2C(=O)C3C4C=CC(C4)C3C2=O)s1 (stereo unspecified),–,inactive: 5.91%
Cc1ccc(SCCNC(=S)Nc2ccc(C)c(C)c2)cc1,–,inactive: -9.21%
CC(C)CCn1cnc2c(cnn2-c2ccc(F)cc2)c1=O,active: 11.2 µM,–
O=C(CSc1n[nH]c(-c2cccs2)n1)NCc1ccc2c(c1)OCO2,active: 12.6 µM,–
CCCN(CCC)S(=O)(=O)c1ccc(NC(=O)c2cc(C(=O)OC)cc([N+](=O)[O-])c2)cc1,–,inactive: -18.6%
CCOC(=O)c1cc2c(=O)n3cccc(C)c3nc2n(C)c1=N,"inconclusive [inhibitor, partial curve]",–
O=C(COc1ccc2ccccc2c1)NC1=NCCS1,"inconclusive [inhibitor, partial curve]",–
O=C(COC(=O)c1n[nH]c2ccccc12)NC(=O)NCc1ccco1,"inconclusive [inhibitor, partial curve]",–
CC1=CC(C)(C)Nc2ccc(OC(=O)CN3C(=O)c4ccccc4C3=O)cc21,"inconclusive [inhibitor, partial curve]",–
Cc1cc(C)c(S(C)(=O)=O)c(Oc2ccc(C(C)(C)C)cc2)n1,–,inactive: -6.75%
Cc1cc(NS(=O)(=O)c2ccc(NC(NC(=O)C(C(F)(F)F)C(F)(F)F)(C(F)(F)F)C(F)(F)F)cc2)no1,"inconclusive [inhibitor, single point]",–
Cc1ccc2[nH]c(=O)c(CN(Cc3ccco3)S(=O)(=O)c3c(C)ccc4nsnc34)cc2c1,"inconclusive [inhibitor, single point]",–
CCS(=O)(=O)Nc1cc(C(=O)OC)ccc1C(=O)OC,"inconclusive [inhibitor, single point]",–
CC(OC(=O)c1cc2sccc2n1C)C(=O)NCc1ccco1 (stereo unspecified),"inconclusive [inhibitor, partial curve]",–
O=C(CCCSc1nc2sc3c(c2c(=O)[nH]1)CCC3)NCCO,"inconclusive [inhibitor, single point]",–
CCOC(=O)c1nnn(-c2nonc2OC)c1-c1ccccc1,active: 8.91 µM,–
Cc1ccc(N2C(=O)NC(NC(=O)C(C)(C)C)(C(F)(F)F)C2=O)cc1C (stereo unspecified),–,inactive: 1.88%
O=C(Cc1ccccc1)Nc1ccccc1C(=O)O,"inconclusive [inhibitor, partial curve]",–
O=C(NNc1c2ccccc2nc2ccccc12)c1ccc(O)cc1,–,inactive: -10.6%
CCOC(=O)C(CCC(=O)O)(CCC(C)C)c1csc(N)n1 (stereo unspecified),"inconclusive [inhibitor, single point]",–
O=C(Nc1ccc2c(c1)C(=O)N(CC1CCCO1)C2=O)c1ccc(Cl)c(Cl)c1 (stereo unspecified),"inconclusive [inhibitor, partial curve]",–

SMILES,Potency,"activity change, negative = inhibition"
COc1ccc2c(c1)CCc1cc(C(=O)N3CCN(c4ccc(N5CCOCC5)nn4)CC3)sc1-2,"inconclusive [inhibitor, partial curve]",–
CN(C)c1ccnc(Oc2ccc(C(C)(C)C)cc2)c1C#N,active: 35.5 µM,–
COc1cccc(-c2cc(C(F)(F)F)nc(-n3cccn3)n2)c1,"inconclusive [inhibitor, single point]",–
CCOc1c2ccc(C(=O)NCc3ccc(OC(F)(F)F)cc3)cc2nn1C,"inconclusive [inhibitor, partial curve]",–
CCCS(=O)(=O)N1CCCC(C(=O)NC2CCCC(C)C2C)C1 (stereo unspecified),–,inactive: -5.92%
Cc1nnc(NC(=O)CSc2nnnn2Cc2ccccc2)s1,–,inactive: -13.2%
CCOc1cccc(C=Nc2cc(C)cc(C)c2O)c1O,active: 11.2 µM,–
CC1(OC(=O)C2CCCC2)C(=O)C=C2C=C(c3ccsc3)N(c3cccc(C#N)c3)C=C2C1=O (stereo unspecified),"inconclusive [inhibitor, partial curve, poor fit]",–
CCCC(=O)OCCNc1cc(Sc2nc3ccccc3[nH]2)c2nonc2c1[N+](=O)[O-],active: 7.94 µM,–
COc1ccc(OC)c(-c2cc(C(=O)N3CCc4ccccc4C3)no2)c1,"inconclusive [inhibitor, partial curve]",–
CCOc1cc(CNc2ccc(O)cc2)cc(Br)c1OCc1ccccc1F,–,inactive: -4.66%
Cc1nc2cc(NC(=O)N3CCN(c4ccccn4)CC3)ccc2o1,"inconclusive [inhibitor, partial curve]",–
CCN(C(=O)c1ccc(NC(C)=O)cc1)c1ccccc1,"inconclusive [inhibitor, partial curve, poor fit]",–
Cn1c(SCC(=O)Nc2ccc3nc(SCC(=O)N4CCCC4)sc3c2)nnc1-c1ccccc1,active: 3.98 µM,–
COC(=O)Sc1nnc(-c2ccc(Br)cc2)o1,active: 22.4 µM,–
COCCn1c(=O)c(-c2cccs2)nc2cnc(Oc3ccc(OC)cc3)nc21,"inconclusive [inhibitor, partial curve]",–
CC(=O)OC1CCC2(C)C3=C(CCC2C1(C)C)[C@@]1(C)CCC(C(C)CCC=C(C)C)[C@@]1(C)CC3 (stereo partly specified),–,inactive: -0.827%
COc1ccc(C2=CC(c3ccc(Cl)cc3)n3cnnc3N2)cc1OC (stereo unspecified),"inconclusive [inhibitor, partial curve]",–
CCCCOC(=O)Oc1ccc2c(=O)c(Oc3cccc(C)c3)coc2c1,"inconclusive [inhibitor, full curve]",–
O=C(Oc1csc(=S)n1C(=O)c1ccccc1)c1ccccc1,active: 4.47 µM,–
O=C(c1ccco1)N1CCN(C(c2ccccc2Cl)c2nnnn2Cc2cccs2)CC1 (stereo unspecified),–,inactive: -9.89%
Cn1c(SCC(=O)Nc2ccc3cn[nH]c3c2)nnc1-c1cnccn1,–,inactive: -9.07%
O=C(CN1CCOCC1)Nc1ccc(Oc2ccccc2)cc1,"inconclusive [inhibitor, single point]",–
